Data on 24 sequences can be found in the supplement of paper PMC11417369.

This is one part of the list.

The test concerns PfAP2-HC AP2 domain (GST-tagged). Description: gcPBM binding intensity (ln(normalized median fluorescence intensity)); higher = stronger DNA binding. Summed up:
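For binding intensity, the highest Masliner-normalised natural-log median intensity across replicate spots of either probe orientation was taken. Protein bound to the array was stained with Alexa488 anti-GST antibody and scanned at 488 nm. The protein, GST-tagged P. falciparum DNA-binding domains from E. coli at about 25 μg on average, had been applied for 1 h to an Agilent 4 × 180k array of primer-extended double-stranded 36-bp intergenic genomic probes and negative controls.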
Regarding “CACCCACACCAACACACACACATATATAATATATAT [CACACA_site595]”, the “gcPBM binding intensity (ln)” value was 10.6.
The result for “TATAGATAACAAAAGTGTACATGTTGTATACACATG [XGTACX_site3471]” reads 9.71; that for “AACAACTATTACTGCACACATTCTTACACTATATAA [CACACA_site654]”, 10.1; that for “TATATATATAAACACACACACACACCCAAGCGTAGC [CACACA_site4210]”, 10.6.
As for “TATTTGTGTATTTTTACACACATTAATATATTTATA [CACACA_site7562]”, the figure is 9.78; as for “TGTACAAATTATACTTCGAACGAAGGGCATACATAT [XGTACX_negctrl_site37]”, 9.68; as for “TATATATATATTATATGTACACATTTGTGAATTATT [XGTACX_site5848]”, 9.64.
The result for “TGTGTTATATATAAAGAAAAAAAAAAAAAATATATA [CACACA_negctrl_site567]” reads 9.61; that for “AAAAATTTAATTATTTGTACATAAAATACATTTCTG [XGTACX_site791]”, 9.48; that for “TATTCCTATATAAAGACACACATATGTAACTACGAT [CACACA_site4139]”, 9.9.
As for “GAACTTTACAACCCAACACACAAAAAAGAAAAGAAA [CACACA_site1717]”, the “gcPBM binding intensity (ln)” value was 10.1.
As for “ATTGGTGTATGTTTATGTACTTATCACAATTATGAA [XGTACX_site7055]”, the figure is 9.62; as for “AATAGGAAAAGAAAAGCACACACATAAATAAATATA [CACACA_site8062]”, 10.3.
As for “ATATGTTCATTTAAAAGTACTTAATATAACATTTTT [XGTACX_site3332]”, the figure is 9.56.
As for “TATTTTAACATGTTTTCAAAAATAAAACATATAAAT [CACACA_negctrl_site1598]”, the “gcPBM binding intensity (ln)” value turned out to be 9.3.
As for “TAATATGACATAAGGGGTACTATATATATATATATT [XGTACX_site386]”, the figure is 9.72; as for “AAACATTTACTATATTGTACTTAAGATCTTATCGTA [XGTACX_site3919]”, 9.62; as for “GTTTTATAAAAAGGCGCACACATATACATAAATATA [CACACA_site1864]”, 10.1.
The result for “TAAATACAAAAATGCACACGAAAAGTAATATATATA [CACACA_site6151]” reads 9.95; that for “GATAAAGTACTTTATACACACAAATATTTATATATA [CACACA_site3974]”, 9.82.
“AAAAAGAAAATATATACACACCAAAAAAAAAAAAAA [CACACA_site5698]”: the “gcPBM binding intensity (ln)” value worked out at 9.75.
Turning to “TCAAATTACTAAAATACACACATATTATAGATATAT [CACACA_site7233]”, the “gcPBM binding intensity (ln)” value came out at 9.69.
As for “TGTATATATAATAAAACACACATTTTTAATGTGCTC [CACACA_site1437]”, the figure is 9.74; as for “AAACGATTAATGTGTACACACATAGTTATAAACATA [CACACA_site7073]”, 10.1.
